In all, about 310,000 compounds went through this assay and about 14,000 (4.5%) showed an effect of 50% or more. The effect is printed as a negative number. The list shows a part of the results.
molecular target: human ether-à-go-go-related gene (hERG) potassium channel (human, UniProt Q12809); test: primary screen, population patch clamp on CHO cells stably expressing hERG
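Further: peak tail current of the secondary pulse compared with the same well before compound.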

Chain of human ether-à-go-go-related gene (hERG) potassium channel (Q12809 whole entry, looked up): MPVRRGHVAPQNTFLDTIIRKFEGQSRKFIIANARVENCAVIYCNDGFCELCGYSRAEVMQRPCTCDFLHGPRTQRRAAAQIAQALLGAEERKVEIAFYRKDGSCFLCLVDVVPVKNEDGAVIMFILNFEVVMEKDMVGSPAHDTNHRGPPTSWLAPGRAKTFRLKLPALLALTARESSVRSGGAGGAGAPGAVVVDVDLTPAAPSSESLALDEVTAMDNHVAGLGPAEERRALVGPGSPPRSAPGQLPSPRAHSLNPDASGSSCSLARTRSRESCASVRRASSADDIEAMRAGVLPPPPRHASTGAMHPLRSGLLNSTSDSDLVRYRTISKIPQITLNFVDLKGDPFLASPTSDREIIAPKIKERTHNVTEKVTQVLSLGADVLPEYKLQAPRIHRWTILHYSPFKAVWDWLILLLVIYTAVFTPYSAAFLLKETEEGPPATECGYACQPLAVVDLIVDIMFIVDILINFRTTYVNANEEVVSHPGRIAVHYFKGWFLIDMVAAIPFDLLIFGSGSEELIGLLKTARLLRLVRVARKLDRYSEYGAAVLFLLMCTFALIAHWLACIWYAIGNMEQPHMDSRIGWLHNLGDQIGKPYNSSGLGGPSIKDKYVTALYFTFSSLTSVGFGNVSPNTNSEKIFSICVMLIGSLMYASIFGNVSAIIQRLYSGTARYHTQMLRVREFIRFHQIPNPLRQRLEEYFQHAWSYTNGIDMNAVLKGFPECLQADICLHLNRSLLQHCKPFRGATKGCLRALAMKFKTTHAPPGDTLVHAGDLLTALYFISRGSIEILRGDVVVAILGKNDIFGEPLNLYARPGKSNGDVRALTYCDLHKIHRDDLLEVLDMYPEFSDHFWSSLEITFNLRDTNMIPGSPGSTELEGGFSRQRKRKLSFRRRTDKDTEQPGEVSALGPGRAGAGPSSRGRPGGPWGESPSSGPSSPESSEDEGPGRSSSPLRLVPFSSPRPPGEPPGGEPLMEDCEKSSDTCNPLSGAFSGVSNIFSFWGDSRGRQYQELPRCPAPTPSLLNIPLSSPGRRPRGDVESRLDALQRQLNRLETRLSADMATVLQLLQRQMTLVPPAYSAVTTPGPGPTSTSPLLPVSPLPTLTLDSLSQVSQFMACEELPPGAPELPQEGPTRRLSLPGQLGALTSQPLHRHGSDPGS

Point of comparison: O=C(Nc1ccc2c(c1)OCO2)C1CCCCN1S(=O)(=O)c1ccc(F)cc1 (stereo not drawn), “hERG current change (%, negative = inhibition) at 10uM” value -18.3%. Against it:
- COC(=O)c1ccc(C(=O)OC)nc1 — higher, 13%
- CCn1c(=O)c(C(C)=O)nc2ccccc21 — higher, -1.03%
- O=c1cc(-c2ccccc2)c2c(O)cc(O)cc2o1 — higher, -17.7%
- COc1ccc(C2NC(=O)CCC2[N+](=O)[O-])cc1 (stereo not drawn) — higher, 23.5%
- O=C(CN(C(=O)c1csnn1)c1cccc2c1CCCC2)NC1CCCC1 — higher, 7.48%
- C=CCNC(=O)CCc1nnc(C2(c3ccc(Cl)cc3)CCC2)o1 — higher, 4.09%
- COc1ccccc1CCNS(=O)(=O)CCNC(=O)c1ccccc1 — higher, -14%
- CCOC(=O)c1ccc(NC(=S)NCCc2ccc(OC)c(OC)c2)cc1 — higher, -2.92%
- CCOc1ccc(/C(C)=N/NC(=O)C(OC)c2ccccc2)cc1 (stereo not drawn) — higher, 28.6%
- CN(C)S(=O)(=O)Nc1cccc(Br)c1 — higher, -14.2%
- O=C(Nc1cccc(F)c1)Nc1ccc(Cl)cn1 — higher, 7.51%
- O=C(Cn1cccn1)c1ccccc1 — higher, 33.3%
- O=C(CN1CCCCC1)Nc1nnc(-c2ccc([N+](=O)[O-])cc2)s1 — higher, -14.1%
- COC(=O)c1ccc(N=Cc2c(C(F)(F)F)[nH][nH]c2=O)cc1 — higher, 27.2%
- CCOC(=O)c1sc2nc(COC(=O)c3c(F)cccc3F)[nH]c(=O)c2c1C — higher, 23.5%
- O=C1C=C(c2ccc(Cl)c(C(F)(F)F)c2)C[C@@H](c2ccc(F)cc2)C1 — higher, 26.4%
- O=C(c1ccccn1)N1CCCC(N2CCN(c3cccc(C(F)(F)F)c3)CC2)C1 (stereo not drawn) — lower, -28.8%
- COc1ccc(OCC(=O)Nc2ccc3c(c2)nc(CCN2CCCC2)n3C)cc1 — lower, -55%
- COc1ccc(CCNC(=O)CSc2ccc(-c3ccco3)nn2)cc1OC — higher, 12.6%
- NC(=S)N/N=C/c1ccccc1OCc1cccc(Cl)c1 — higher, 8.44%
- C/C(=N\NC(=O)c1cccc(S(=O)(=O)N2CCOCC2)c1)c1ccc(O)cc1 — higher, 11.4%
- Cc1ccc(S(=O)(=O)NNC(=O)CCC(=O)Nc2ccccc2Cl)cc1 — higher, 9.9%
- Cc1ccc[n+](-c2nc3ccccc3nc2C(=C=[N-])C#N)c1 — higher, 9.43%
- N=C1/C(=C\c2ccc(OC(=O)c3ccc(F)cc3)cc2)C(=O)N=C2SC(N3CCOCC3)=NN12 — higher, 17.3%
- O=C(COc1cccnc1[N+](=O)[O-])N1CCN(C(=O)c2ccco2)CC1 — lower, -34.2%
- C/C(Cl)=C/Cn1c(SCC(C)C)nc2c1c(=O)[nH]c(=O)n2C — higher, 15.2%
- CCOCc1cc(C)[nH]c(=O)c1C#N — lower, -22.7%
- CCNc1ccc2noc3c2c1C(=O)c1ccccc1-3 — higher, 1.12%
- NC(=O)NC(CC(=O)NCCc1ccc(S(N)(=O)=O)cc1)c1ccc(Cl)cc1 (stereo not drawn) — higher, 14.1%
- O=C(CN1C(=O)NC2(CCCCCCC2)C1=O)N1CCN(C(=O)c2ccco2)CC1 — higher, -5.03%
- CN1CCN(C(=O)C2=C[C@@H](c3csc4ccccc34)C[C@@H](OCc3ccc(CO)cc3)O2)CC1 — higher, -8.28%
- CCCC(C)c1nnc(NC(=O)C(=O)OCC)s1 (stereo not drawn) — higher, 4.96%
- COc1ccccc1N1CCN(c2cnccn2)CC1 — higher, -2.25%
- CC(C)NC(=O)c1ccccc1-c1ccccc1 — higher, 15.9%
- CC1(C)CC(=O)C2=C(C1)Nc1ccccc1NC2c1ccccc1F (stereo not drawn) — higher, 12.3%
- CCc1ccc(CNC(=O)CN2C(=O)COc3ccccc32)cc1 — higher, -4.31%
- CC(=O)Nc1ccc(C(=O)NC(C)c2ccc(-n3ccnc3)cc2)cc1 (stereo not drawn) — higher, 7.74%
- COc1ccc(-c2cnc3ccccc3n2)cc1NC(=O)CNC(=O)c1ccccc1 — higher, 12.5%
- COC(=O)c1[nH]c2ccc(F)cc2c1NS(=O)(=O)c1ccc(OC)cc1OC — lower, -19.5%
- COc1ccc(NC(=O)C2CCCO2)cc1 (stereo not drawn) — higher, -0.956%
- CC(=O)Nc1ccc2c(c1)C(C)(C)C(C)N2C (stereo not drawn) — higher, 15%
- CC1CC(=O)Nc2ccccc2N1C(=O)CSc1ncnc2sccc12 (stereo not drawn) — higher, -7.75%
- COc1ccc(/C=C/C(=O)N2CCCc3ccccc32)cc1 — higher, -16.8%
- COC(=O)c1nnn(CC(=O)Nc2cc(Cl)ccc2C)c1C(=O)OC — higher, 1.19%
- COCc1nnc(NC(=O)CCc2ccccc2)s1 — lower, -34.6%
- COc1ccc(Oc2coc3cc(O)ccc3c2=O)cc1 — higher, -5.68%
- COc1ccc(-n2c(C)c(C(C)=O)c3cc(OC(C)=O)ccc32)cc1 — higher, 25.8%
- Cc1cccc(NC(=O)COC(=O)CCc2ccccc2)c1C — higher, 10.7%
- CN(CC(=O)Nc1ccc(S(=O)(=O)N2CCOCC2)cc1)Cc1ccc(F)cc1 — higher, -14.2%
- CC(C)c1nnc(SCC(=O)N2CCc3ccccc32)n1N — higher, 19.2%
- CCc1ccc(OCC(=O)N/N=C\c2ccco2)c([N+](=O)[O-])c1 — lower, -67.4%
- COCCOC(=O)C1=C(C)NC2=C(C(=O)CC(C)(C)C2)C1c1ccc(N(C)C)cc1 (stereo not drawn) — higher, 3.33%
- Cc1noc(-c2ccccc2)c1NC(=O)Nc1ccccc1 — higher, 9.77%
- Cc1ccc(S(=O)(=O)N(C)CC(=O)OCC(=O)N2CCN(c3ccccc3)CC2)cc1 — lower, -24.5%
- CC(C)[N+]1(C)[C@@H]2CC[C@H]1CC(OC(=O)C(CO)c1ccccc1)C2.[Br-] (stereo partly drawn) — higher, 11.7%
- COc1cc(OC)c2ccc(=O)oc2c1C(CCN1CCCC(C)C1)c1ccc2c(c1)OCO2 (stereo not drawn) — lower, -61%
- CN(Cc1nc(-c2cnccn2)no1)CC1(c2ccccc2)CC1(C)C (stereo not drawn) — higher, 4.2%
- CC(=O)Nc1ccc(S(=O)(=O)Nc2ccc3ccccc3n2)cc1 — higher, 10.9%
- CC(C)N1C(=O)CC2(CC[N+](C)(CCOC(=O)C(O)(c3ccccc3)c3ccccc3)CC2)C1=O.[I-] (stereo not drawn) — higher, 9.05%
- COc1ccc(OC)c(C2=Nn3c(nnc3-c3cccc(OC(C)C)c3)SC2)c1 — higher, -8.24%
- O=C(CCc1ccccc1)NNC(=S)NCc1ccc(Cl)cc1 — higher, 7.88%
- COc1cccc(N(C(=O)c2snc(C(N)=O)c2N)C(C(=O)NCC2CCCO2)c2ccc(F)cc2)c1 (stereo not drawn) — higher, 10.6%
- CCONc1ncnc2nonc12 — higher, 17.8%
- CC(C)CC(=O)Nc1ccc(C(=O)NN2C(=O)c3ccccc3C2=O)cc1 — higher, 2.48%
- Cc1ccccc1Nc1nc2nonc2nc1N1CCOCC1 — higher, -7.99%
- CCOc1ccccc1N(CC(=O)NCC1CCCO1)C(=O)CCC(=O)Nc1cc(C)on1 (stereo not drawn) — higher, 21.6%
- NNC(=O)COc1cccc(Oc2ccccc2)c1 — higher, 22%
- CCCC(=O)N1CC2(C)CN(C(=O)CCC)CC(CCC)(C1)C2=O — higher, 9.95%
- CN(C(=O)CSC1=Nc2ccccc2C2=NC(c3ccccc3)C(=O)N12)C1CCCCC1 (stereo not drawn) — lower, -73%
- CN1CCN(c2ccc(NC(=O)c3ccc4ccccc4c3)cc2)CC1 — lower, -66.1%
- CCC(C(=O)N1CCC2(CC1)OCCO2)n1c2ccccc2c2nc(=O)cc(C)n21 (stereo not drawn) — higher, 5.82%
- CCOC(=O)C1=C(COC(=O)CNS(=O)(=O)c2ccc(C)cc2)NC(=O)NC1C (stereo not drawn) — higher, 18%
- O=c1n(-c2ccccc2)c(=O)n2n1CCCC2 — higher, 18.6%
- Cc1nn(CC(=O)N2CCOCC2)c(=O)c2ccccc12 — higher, -3.51%
- Cn1cc(CN2CCC(C(=O)Nc3cccc(-c4cscn4)c3)CC2)cn1 — higher, 5.33%
- COc1ccc(/C=C/C(=O)N[C@H](C(=O)O)C(C)C)cc1 — higher, 42.9%
- COc1ccc(Cn2c(S(=O)(=O)CC(N)=O)nc3ccccc32)cc1[N+](=O)[O-] — higher, -7.44%
- O=[N+]([O-])c1ccc(N2CCOCC2)c2ccncc12 — lower, -41.5%
- O=C(COC(=O)c1nc(-c2ccccc2)n(-c2cccc(C(F)(F)F)c2)n1)NCc1cccs1 — higher, -16%
- N/C(=N\OC(=O)CCC1CCCCC1)c1ccccn1 — higher, -5.76%
- O=[N+]([O-])c1ccc(O)c(C=Nc2ccc3nc(-c4ccccc4)[nH]c3c2)c1 — higher, 9.15%
- COC(=O)CNC(=O)C(Cc1c[nH]c2ccccc12)NC(=O)OC(C)(C)C (stereo not drawn) — higher, 11%
- CCC(=O)N(C)CCc1cc2c(c(OC)c1/C=N/Nc1ccc(C(=O)O)cc1)OCO2 — higher, -1.63%
- Cc1ccccc1C1CCCN(Cc2nc(C3CC3)no2)C1 (stereo not drawn) — higher, 4.27%
- CCCCCn1ccc(=O)c2c(C(F)(F)F)nccc21 — higher, -11.3%
- COc1ccc(OCCSc2nnc(-c3ccc(OC)cc3)n2N)cc1 — higher, -5.14%
- COc1ccc(Nc2nc(N)nc(CSC(=S)N3CCC(C)CC3)n2)cc1 — higher, -5.86%
- CN(C)c1cc2c(c(N(C)C)c1)C(=O)c1ccccc1C2=O — higher, 6.61%
- COc1ccc2c(C=Nc3c(C)n(C)n(-c4ccccc4)c3=O)c(O)n(Cc3ccco3)c(=O)c2c1 — higher, 3.02%
